Data: publication PMC7819943, “Rice protein-binding microarrays: a tool to detect cis-acting elements near promoter regions in rice”
Some of the results follow.

The sequences below were run against T1, OsWOX13 (Oryza sativa, UniProt Q5QMM3 1-267) (assay: protein-binding microarray (RPBM); PBS, 2% BSA, 51.3 ng/ul salmon testes DNA, 50 uM zinc acetate, 200 nM TF, 25 C, 1 h; high values mean tight binding). Conditions: protein: recombinant; tags: N-terminal polyhistidine and DsRed monomer fusion (pET32a); label: CyDye5-dUTP incorporated in the synthesized complementary strand; 3' TTTTT single-stranded linker to array surface; dsDNA, one strand shown.
T1 sequence: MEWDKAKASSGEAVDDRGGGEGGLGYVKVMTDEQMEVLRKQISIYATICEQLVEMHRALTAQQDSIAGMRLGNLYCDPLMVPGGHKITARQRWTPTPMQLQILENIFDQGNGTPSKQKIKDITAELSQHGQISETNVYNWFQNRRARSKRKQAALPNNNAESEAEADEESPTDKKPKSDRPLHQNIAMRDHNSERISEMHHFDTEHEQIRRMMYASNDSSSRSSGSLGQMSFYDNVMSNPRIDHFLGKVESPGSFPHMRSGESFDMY
Procedure, shortened: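 Polyhistidine-tagged DsRed fusions of transcription factors, joined at the N-terminus, were expressed in E. coli BL21-CodonPlus and isolated on Ni–NTA. They were incubated at 200 nM for 1 h at 25 °C on a custom Agilent array, double-stranded and BSA-blocked, in PBS with 2% BSA, salmon testes DNA and 50 µM zinc acetate. The binding signal is per-feature fluorescence intensity (arbitrary units) read on an Axon 4000B scanner after washing.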

Q: Which binding signal does the source give for “TCGATCCTGATTGAACGGTCATGATTTATAAGTTCTATTTCGGAGTCACCTAGTGCAG” here?
A: 31200 fluorescence intensity (a.u.)

Q: “AATCTAACGGGTGGGTCTCATGTATTGATGAGGAAGAAGACGGAGTCACCTAGTGCAG” was tested. Which binding signal did it give?
A: 5960 fluorescence intensity (a.u.)

Q: For “ACCGATGGTGATTAGTTTGGGACCATTTGATTCCCCATGGCGGAGTCACCTAGTGCAG”, which binding signal is on record?
A: 19700 fluorescence intensity (a.u.)

Q: Which binding signal does the source give for “ACAAATTGGACCACGATGTAAAACTTTGAAGGAGAGGGGCCGGAGTCACCTAGTGCAG” here?
A: 9950 fluorescence intensity (a.u.)

Q: How did the binding signal turn out when “ATTTTGACAAGGTTTATTTTAACATCAAACAGCTGGTTACCGGAGTCACCTAGTGCAG” was run?
A: 5490 fluorescence intensity (a.u.)

Q: Which binding signal does the source give for “ACGTAGATTTACATTGGACCAGTAGTTAGCCTACTAGTACCGGAGTCACCTAGTGCAG” here?
A: 6800 fluorescence intensity (a.u.)

Q: Which binding signal does the source give for “GTTAATGGGCCGAGTACTTTCTTCACTCTGTTTATCGGTCCGGAGTCACCTAGTGCAG” here?
A: 3660 fluorescence intensity (a.u.)

Q: For “TATCCCTGTGTTTCTAATTTGTGTCTATTTGTGATAATCCCGGAGTCACCTAGTGCAG”, which binding signal is on record?
A: 3540 fluorescence intensity (a.u.)

Q: Which binding signal does the source give for “CTAATTATACAGATTGCGACTAATTTATGAGACGAATCTTCGGAGTCACCTAGTGCAG” here?
A: 30000 fluorescence intensity (a.u.)

Q: “CAAATTTAATTAATGTCTTCCATACTTTCATCATTAGAAGCGGAGTCACCTAGTGCAG” was tested. Which binding signal did it give?
A: 30600 fluorescence intensity (a.u.)

Q: Which binding signal does the source give for “GTAATTATTAATTCTTTTCATATCATTTGATTCATTGTTACGGAGTCACCTAGTGCAG” here?
A: 10400 fluorescence intensity (a.u.)

Q: For “TGGAGATTGCTAATATCGCGGTTTAGAGTTGTCCCTTAAACGGAGTCACCTAGTGCAG”, which binding signal is on record?
A: 3720 fluorescence intensity (a.u.)

Q: With “GAAAATTACATACTAATTACATATGGGGTGTAATTACTGTCGGAGTCACCTAGTGCAG” as the sequence, how does the binding signal read?
A: 18900 fluorescence intensity (a.u.)

Q: How did the binding signal turn out when “GTTTGATTGCACGACTGGTAACGGTTTCTTCTCTCTTTTGCGGAGTCACCTAGTGCAG” was run?
A: 50100 fluorescence intensity (a.u.)

Q: Which binding signal does the source give for “TCCCAATTACCTGCCCCTACCCAGGTATTGAAAAGGATGGCGGAGTCACCTAGTGCAG” here?
A: 4100 fluorescence intensity (a.u.)

Q: “AAAATTGATGAATAATTACTCTACTGTTTTACTTCTAAATCGGAGTCACCTAGTGCAG” was tested. Which binding signal did it give?
A: 44400 fluorescence intensity (a.u.)

Q: Which binding signal does the source give for “TACCACTCATTTGTGATAGATGAGATGCCACTTGTCTCCCCGGAGTCACCTAGTGCAG” here?
A: 7290 fluorescence intensity (a.u.)

Q: How did the binding signal turn out when “ATATATATATATATATATACCTGTCGATGGTAAAATATGACGGAGTCACCTAGTGCAG” was run?
A: 12600 fluorescence intensity (a.u.)

Q: How did the binding signal turn out when “TGAGTTCTTGTTAATTACTAAAGGATTGCGGCCATGGATGCGGAGTCACCTAGTGCAG” was run?
A: 3350 fluorescence intensity (a.u.)

Q: “GAAATCATCATCACCAATCCCACCTGATTCCTCTCCACCGCGGAGTCACCTAGTGCAG” was tested. Which binding signal did it give?
A: 3950 fluorescence intensity (a.u.)

Q: “TCACATTGATATTAATTAATCTAGATAAATATATATATGTCGGAGTCACCTAGTGCAG” was tested. Which binding signal did it give?
A: 17200 fluorescence intensity (a.u.)

Q: For “CGGTTAAAATGATTGTTAGTACAAATTTGGTACTACCTAACGGAGTCACCTAGTGCAG”, which binding signal is on record?
A: 25500 fluorescence intensity (a.u.)

Q: How did the binding signal turn out when “CATCCAATCACAACCTTCCTCCATTTAATTCTACCTATTTCGGAGTCACCTAGTGCAG” was run?
A: 15700 fluorescence intensity (a.u.)

Q: For “TGTAAATTGCGAGACCAATCTTTTAAGCCTAATTACGCCACGGAGTCACCTAGTGCAG”, which binding signal is on record?
A: 21000 fluorescence intensity (a.u.)

Q: How did the binding signal turn out when “GAGCTCAATTAATCTCCATCTCCACCGCGAGTCCGACGAACGGAGTCACCTAGTGCAG” was run?
A: 3660 fluorescence intensity (a.u.)

Q: For “CTAATTAACTATCTTCATATACAAGCCCTGAACGATGCATCGGAGTCACCTAGTGCAG”, which binding signal is on record?
A: 10300 fluorescence intensity (a.u.)

Q: How did the binding signal turn out when “TAGATGATTTCATATTGTCCTTTGAACTGTTCACTTTATTCGGAGTCACCTAGTGCAG” was run?
A: 3400 fluorescence intensity (a.u.)

Q: For “GTATAATTACACTACGATTGTACTGTAATTACATCTGACACGGAGTCACCTAGTGCAG”, which binding signal is on record?
A: 17800 fluorescence intensity (a.u.)

Q: “TGAGCCTAATTAATCCATGATTAGCCTATGTGATGCTACCCGGAGTCACCTAGTGCAG” was tested. Which binding signal did it give?
A: 29500 fluorescence intensity (a.u.)

Q: How did the binding signal turn out when “TTTGATGAGGTATCAAACTAAACAAGCTCGAATCCTGACTCGGAGTCACCTAGTGCAG” was run?
A: 3870 fluorescence intensity (a.u.)

Q: “CGACAAACTGGACTGAGGGAAAATTGTACCTCACCGAGTCCGGAGTCACCTAGTGCAG” was tested. Which binding signal did it give?
A: 4360 fluorescence intensity (a.u.)

Q: Which binding signal does the source give for “GGCTCTAAATTGTTTATAGTAACGGAATTGCTATATATGTCGGAGTCACCTAGTGCAG” here?
A: 7030 fluorescence intensity (a.u.)

Q: With “TTGTGATTATTTCTATACCTACCATAGGGAATTTTACAATCGGAGTCACCTAGTGCAG” as the sequence, how does the binding signal read?
A: 24600 fluorescence intensity (a.u.)

Q: How did the binding signal turn out when “GTTTGTTTAGATTGGTACCATTTAAAATCATATTATTTTGCGGAGTCACCTAGTGCAG” was run?
A: 20600 fluorescence intensity (a.u.)

Q: With “CTGAACCAAATTGATACTTGGACAGACCATCTTGGCCTCACGGAGTCACCTAGTGCAG” as the sequence, how does the binding signal read?
A: 13500 fluorescence intensity (a.u.)

Q: “ACTTTCTAATGCAATCAATCTGTCTGAAATCTGCCAAGTTCGGAGTCACCTAGTGCAG” was tested. Which binding signal did it give?
A: 7870 fluorescence intensity (a.u.)

Q: For “CTCAACCTAGATTGTTATATTTTCCCTCCAACCTAGATTGCGGAGTCACCTAGTGCAG”, which binding signal is on record?
A: 4090 fluorescence intensity (a.u.)

Q: How did the binding signal turn out when “TTTGATTAGTTAAGGGACGCCGAATATCTGATTTTGTGGTCGGAGTCACCTAGTGCAG” was run?
A: 44300 fluorescence intensity (a.u.)

Q: For “AGCCTAATTAATCCGCCATTAGCAAATATGGATTACTGTGCGGAGTCACCTAGTGCAG”, which binding signal is on record?
A: 22900 fluorescence intensity (a.u.)

Q: For “ATTAACTAGTATAAATTAGTTATTAGATAGACTATAGATGCGGAGTCACCTAGTGCAG”, which binding signal is on record?
A: 26700 fluorescence intensity (a.u.)

Q: Which binding signal does the source give for “ATTTTAAGTGACGGGTAAATTAAATTTGATTTGTATTTGCCGGAGTCACCTAGTGCAG” here?
A: 33100 fluorescence intensity (a.u.)

Q: With “CCATAATTATTGTGACATCTGTGACGATGCACAGCCAGTACGGAGTCACCTAGTGCAG” as the sequence, how does the binding signal read?
A: 38000 fluorescence intensity (a.u.)

Q: “CCATGATTAGTCTATGTGATGCTATAGTAAACATGTGCTACGGAGTCACCTAGTGCAG” was tested. Which binding signal did it give?
A: 29200 fluorescence intensity (a.u.)

Q: With “CCGTCAATTATACTTATGTATAAAATCTTAACATCAAATTCGGAGTCACCTAGTGCAG” as the sequence, how does the binding signal read?
A: 5360 fluorescence intensity (a.u.)

Q: For “TTGCTTTGTGTAATTAATTTAACAGATTTTGGGAGTATTACGGAGTCACCTAGTGCAG”, which binding signal is on record?
A: 12300 fluorescence intensity (a.u.)

Q: How did the binding signal turn out when “ATACTATATTGCTTTTGATTATTGAGCTAGTGAGCAAACTCGGAGTCACCTAGTGCAG” was run?
A: 5160 fluorescence intensity (a.u.)

Q: “TACCCCTAATTTTACTCGATCCCCTCTGTAACCCCGAATTCGGAGTCACCTAGTGCAG” was tested. Which binding signal did it give?
A: 3540 fluorescence intensity (a.u.)

Q: How did the binding signal turn out when “ATAGATTTTCATTAATCTGGCCTCTATATCCACAAGGGTACGGAGTCACCTAGTGCAG” was run?
A: 6830 fluorescence intensity (a.u.)

Q: How did the binding signal turn out when “TCAGTAAATTCTCTTGACTGTTTATGATCACATATGTGATCGGAGTCACCTAGTGCAG” was run?
A: 4780 fluorescence intensity (a.u.)

Q: How did the binding signal turn out when “GACATGATCGACCAATCAGAGTTAGAGCCGGCGTCGAGTTCGGAGTCACCTAGTGCAG” was run?
A: 13900 fluorescence intensity (a.u.)

Q: With “CTCAACAATTGGCCATGTAAATTAGACATTTCATGATGTTCGGAGTCACCTAGTGCAG” as the sequence, how does the binding signal read?
A: 3160 fluorescence intensity (a.u.)

Q: Which binding signal does the source give for “AAACTGATTCTTTGATTATTGACGTCTCATAGACCTACGTCGGAGTCACCTAGTGCAG” here?
A: 31600 fluorescence intensity (a.u.)

Q: For “AATGATCTGATGGATGTTCTCTCACGTTCAAATCAGAGGCCGGAGTCACCTAGTGCAG”, which binding signal is on record?
A: 8430 fluorescence intensity (a.u.)

Q: How did the binding signal turn out when “TACGTACCAGTACTAATTAGCACTGTGCCACTGCTAGTATCGGAGTCACCTAGTGCAG” was run?
A: 4720 fluorescence intensity (a.u.)
